Source: publication PMC12136788
The other results are listed elsewhere or left out.

B1: chr7:149068622:149068623:-_ENSMUSG00000025139_ENSMUST00000001950|mus_hu|mus_mus_mus_hu_False|88_98 (ssRNA)
RNA: GGGAGUUCUACAGUCCGACGAUCGUGAGGCCUCUGAGUGAGGUUCCUGCUCUGCAGUGGGUUAGAGUUGUUAAUAUCACGGAACAUACCAUCUAGAACGUUCCAGUCCCGCCUGACACCUUCAUUCCCAAUGGAGAAGAAAUCCAACAGAGGAUUGAGCAUCA
B2: chr8:38205342:38205343:-_ENSG00000147548_ENST00000316985|hu_hu|FALSE|FALSE (ssRNA)
RNA: GGGAGUUCUACAGUCCGACGAUCCAGAAUUUCAUGUGGUCUUGUGUUUGGAAUUUCUGAAUGAUAAUAGUCAGUGGGGCUAAAGUUUCUAACUGCACCAAAGCCAUUGGCUGACCCAUUAGGAUACUGAUUAUAUGACUGGUACAACAGAGGAUUGAGCAUCA
B3: chr21:38595834:38595835:-_ENSG00000157538_ENST00000309117|hu_mus|FALSE|FALSE (ssRNA)
RNA: GGGAGUUCUACAGUCCGACGAUCAUCAAAGAUGACUUUUCCUUAGACUCACUAGAAAGUACGGCCCACAUUUUUUGGGUACUAGAUUGUUUAAAUAUAACAAGGAUAAGUAUGACAAAGCAAAAGUACAUUCUCUGGGAACUCCAACAGAGGAUUGAGCAUCA
B4: chr4:99339852:99339853:+_ENSG00000138698_ENST00000453712|hu_hu|motif|central (ssRNA)
RNA: GGGAGUUCUACAGUCCGACGAUCUGCAUGCUGUACUGUUACAUUUCCAUCUUCUACAUGUCUGUCCAGUAAAUCCAUAAGUUUUUCGGCAAUCCCAUUGUCUACCAUAUGAAUACAAUUUGCAUCAUUUCUGGCAAAAUUUGCCAACAGAGGAUUGAGCAUCA
B5: chr2:216981417:216981418:+_ENSG00000079246_ENST00000392132|hu_hu|hu_hu_hu_mus_True|38_108 (ssRNA)
RNA: GGGAGUUCUACAGUCCGACGAUCCUGAUACUGAUCCUUGCCAGCAAGGGCAUUAUCAGUGCCAUCUGUGCCAUAGAGGACUAACGCAAUCUCAUCUUUGUUCUCAGAAAAUACCUGUCGUUGGACAAACAUAGUCAUCACUUUCAACAGAGGAUUGAGCAUCA
B6: chr13:51516861:51516862:+_ENSMUSG00000067586_ENSMUST00000087978|mus_hu|FALSE|FALSE (ssRNA)
RNA: GGGAGUUCUACAGUCCGACGAUCCAUUGAUGUCAAGAAGGCAACAGAAAUGCUCCUGGGGAAGAUCUCCUUACAAAUAGGUUUCAUCUCAUCAGUAACAAAAAUUAGAAAAGCCUUUGGUCAGCCCAUGGAGGUGAGUUACUCCAACAGAGGAUUGAGCAUCA
B7: chrX:140365796:140365797:-_ENSMUSG00000031285_ENSMUST00000033642|mus_mus|mus_mus_mus_hu_False|38_58 (ssRNA)
RNA: GGGAGUUCUACAGUCCGACGAUCCUUCUCAUUACUCAGUGCCUGCAAGGUUCUGGUUCGGUAGAAGCUACAGUGGGCACUAUGAGUGGGGCUAGGCAGUCCAUUCAUCCGGGAGCCUCGCAUGUUCCUGGAUGUCUUAUCUCUCAACAGAGGAUUGAGCAUCA
B8: chr7:28421298:28421299:+_ENSMUSG00000004056_ENSMUST00000051356|mus_hu|FALSE|FALSE (ssRNA)
RNA: GGGAGUUCUACAGUCCGACGAUCCAUCAUCUCGUACAUGACCACACCCAGCCCCCACCAGUCCACGGCCCGGCCAUAGUCAUUGUCCUCCAGCACCUCAGGCGCCAGGUACUCCGGGGUCCCACAGAAGGUUUUCAUGGUGGCCAACAGAGGAUUGAGCAUCA
B9: chr7:90019433:90019434:+_ENSMUSG00000057706_ENSMUST00000082237|mus_mus|FALSE|FALSE (ssRNA)
RNA: GGGAGUUCUACAGUCCGACGAUCAAUAAUACAGUGUUCUUUGCCAUAAGGCCAUACUAAAAAUAAAAAGAUUUAACCCAGCUACAAAAAAGUUCACUGAACUUAAAUUAAAAUACUUGUAAACAUCUUUGCAAUAUGAAAUAUCAACAGAGGAUUGAGCAUCA
B10: chr11:75578393:75578394:+_ENSMUSG00000020849_ENSMUST00000067664|mus_hu|motif|central (ssRNA)
RNA: GGGAGUUCUACAGUCCGACGAUCGACACAGUAAUGCUGAAAAAGCCUCUAUGUAGUCCUGUUAGUGUCUUAAAGAACCGGAAAGCUGGGACCAGUAAAAUCCACAGAAAUUCACUCUUGCCUUUAAGAACUUUUGAAAACUGUCAACAGAGGAUUGAGCAUCA
B11: chr17:34036268:34036269:+_ENSG00000006125_ENST00000262325|hu_mus|FALSE|FALSE (ssRNA)
RNA: GGGAGUUCUACAGUCCGACGAUCCAUUUUGCCAUCUUCUACAAAAAGCACAUUGAGUGGGAUGAGGCAGCUGAAGUAGAAGACAUCAAUAUUGUUUUUAACAGCCACCUGCAGGUUAUUCAGGGGCUCCAUCUUCAUGACUGGCAACAGAGGAUUGAGCAUCA
B12: chr11:120422317:120422318:-_ENSMUSG00000025130_ENSMUST00000026122|mus_mus|FALSE|FALSE (ssRNA)
RNA: GGGAGUUCUACAGUCCGACGAUCGCUGACCUGGACAGAGAUCCCUUUCCAAAAUUGAAAAGCAAAAGAAGAGACAGGUCUAAGUGUACGUGUGUCAGAUGAGUGUGGCUUCAGAAAGAUUCCCUGGGUUCUGAUGGCGCUCCCCAACAGAGGAUUGAGCAUCA
B13: chr10:27409400:27409401:-_ENSG00000136758_ENST00000375972|hu_mus|motif|central (ssRNA)
RNA: GGGAGUUCUACAGUCCGACGAUCAGCUUGGUUCACAAGAUUCUCCAACUCUGCUCCAGAGAACCCAACAGUCCCUCGAGCGGUGAUUUCUGGAUCAACAGAUUUAUCAAACUUUAUCUUGUUGAGAUACCAUUUCAAAAUUUCCAACAGAGGAUUGAGCAUCA
B14: chr8:71331417:71331418:+_ENSMUSG00000031864_ENSMUST00000110241|mus_hu|FALSE|FALSE (ssRNA)
RNA: GGGAGUUCUACAGUCCGACGAUCGACCAGCAUGGUGGAAUACACCACUUGGUUUUUAUAUUUUGCAUGUGCUUCACUAUCAAAGUUGUUCAUGUAUCUGCAGAGAUCCUUCAUUCUAUGCAAAAUAUCUCCAUAGCUUCGUCUCAACAGAGGAUUGAGCAUCA
B15: 81065872_81065992_3071_CDS_ENSG00000108175_ENST00000334512|human|control|control (ssRNA)
RNA: GGGAGUUCUACAGUCCGACGAUCCAUCUGGCUGGGACUCAUGGUCUUGAACCGCUUGGAGGGGAUGCCAUCAGGGUCGUCCUUGAUGUGUAAGUCCGACUUGAUGGGCACCGGCCGCCAGCUGCACGUGGGAUCGAUGGUGACCAACAGAGGAUUGAGCAUCA
B16: chr4:115894766:115894767:+_ENSMUSG00000028698_ENSMUST00000030464|mus_hu|mus_mus_mus_hu_True|68_98 (ssRNA)
RNA: GGGAGUUCUACAGUCCGACGAUCUUCCACACGGAAAGUACUUGGGGGUUUUCCAACGGCCAGUACCGUCCAGCCAAAACUACCCGAACAGGGUCCUCCCCCUCUCUCCUACAGAACACAACAAAAUGCCCCCGAACUUUCAAGCAACAGAGGAUUGAGCAUCA
B17: chr5:119214657:119214658:+_ENSMUSG00000018076_ENSMUST00000100816|mus_mus|FALSE|FALSE (ssRNA)
RNA: GGGAGUUCUACAGUCCGACGAUCAUAGCUUUUUUUUCUGGUUUUUUUUGUGUUUUUUUUUUCCUUUUCACUUUUUCUGCGUAGAGUUGGGUUUCUAGGGAAGAAAAGCCCCUGCAGUAAAAACAGCCCAUUUAAAAAAGAGAGCAACAGAGGAUUGAGCAUCA
B18: 123137163_123189634_1759_CDS_ENSMUSG00000041650_ENSMUST00000038374|mouse|control|control (ssRNA)
RNA: GGGAGUUCUACAGUCCGACGAUCGGGUGACGCCAGGUUCCACGUACUGGUCACAUUUAGUUUCGAGCCAUCAACUUCCACGGUAAAUGCCGGCCCAUUGUUAGAUGCCACGACAGUAUGAUCUUCAUCAUGUAACUUUACCGACAACAGAGGAUUGAGCAUCA
B19: chr12:90018129:90018130:-_ENSG00000070961_ENST00000261173|hu_hu|motif|central (ssRNA)
RNA: GGGAGUUCUACAGUCCGACGAUCCUCAGCAAGCCAUGGUCUUUUCUGAACCCAGAAGGUGUCAAUGACAAAAUAUAAUACGGGAAUGAUAACUGUGAUGGCAGACAUCAACAGACCUGCUUUGCCAAUCUGAACAGCCAGUUUCAACAGAGGAUUGAGCAUCA
B20: chr1:220273833:220273834:+_ENSG00000067704_ENST00000302637|hu_hu|motif|central (ssRNA)
RNA: GGGAGUUCUACAGUCCGACGAUCAUCCCAGCCGGGCACAAAAUGUAUUUUGGAGCCAUUCAUCAUAUGGAAUCGAUUGGCGGUGUCUUUCAAAAUCUUAUUUAAAGCAUGUCCAACAUGAGGGUCACCGUUUGCAUAAGGAGGCAACAGAGGAUUGAGCAUCA
B21: 37179728_37179848_3142_CDS_ENSG00000170471_ENST00000397040|human|control|control (ssRNA)
RNA: GGGAGUUCUACAGUCCGACGAUCAUGCAAAUCUGGAAUGCUGAGAUCUGCUUUCACAAAAGGAAUCUUGUCCACCUCUUCAGGAAAUGGCCGAUGUUUCACAGAAUAUUUAAAUCCAACGUCAUUUUUAGGAACUGGGCGAGGCAACAGAGGAUUGAGCAUCA
B22: chr11:69468634:69468635:+_ENSG00000110092_ENST00000227507|hu_hu|motif|central (ssRNA)
RNA: GGGAGUUCUACAGUCCGACGAUCCAGAACACUAGUACAUAACAGAUUAAACAUACCCAAAACUUGAACAAAUUCCAGAAGCGGUUCCAAUCAUCCCGAAUGAGAGUCCUACAGGUACAACGCCGUGGUGGCACGUAAGACACACAACAGAGGAUUGAGCAUCA

target: T1, UNK ZnF1-3 (human, UniProt Q9C0B0 31-174); test: nsRBNS (natural sequence RNA bind-n-seq); RBNS binding buffer (assumed for nsRBNS): 25 mM Tris pH 7.5, 150 mM KCl, 3 mM MgCl2, 0.01% Triton X-100, 500 ug/ml BSA, 20 U/ml SUPERase-In, 4 C; UNK is unkempt and MSI1 is Musashi-1; names of the RNAs are library labels; protein concentration not given here; high values mean tight binding
T1 sequence: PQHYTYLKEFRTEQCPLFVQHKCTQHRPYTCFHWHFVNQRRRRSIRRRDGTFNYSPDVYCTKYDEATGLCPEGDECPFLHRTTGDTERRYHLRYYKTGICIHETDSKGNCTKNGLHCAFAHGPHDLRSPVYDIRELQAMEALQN

Binder	binding signal [enrichment R]
B1	0.525
B2	1.38
B3	1.24
B4	0.695
B5	0.641
B6	1.79
B7	0.321
B8	1.8
B9	1.69
B10	1.61
B11	1.13
B12	1.35
B13	0.859
B14	0.743
B15	0.917
B16	1.2
B17	1.21
B18	1.09
B19	1.49
B20	1.82
B21	0.925
B22	2.11
